Measurements published in publication PMC12136788.
The list shows a part of the results.

T1: UNK ZnF1-3 (human, UniProt Q9C0B0 31-174)
T1 sequence: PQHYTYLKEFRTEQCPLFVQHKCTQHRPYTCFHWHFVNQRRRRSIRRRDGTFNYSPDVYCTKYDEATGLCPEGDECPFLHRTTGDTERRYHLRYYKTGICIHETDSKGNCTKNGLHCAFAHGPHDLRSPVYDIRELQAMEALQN

B1: chr5:37680062:37680063:+_ENSMUSG00000029121_ENSMUST00000031004|mus_hu|mus_mus_mus_hu_False|8_28 (ssRNA)
RNA: GGGAGUUCUACAGUCCGACGAUCUUUGGGUGUAGCUGGUACCUCGUACACAGGACCGUCAUACAUGCCCCUGGAAACCCCUUGCAAUCCAAAAACCUUAUUCCUGAUCCUGACACGCUGGUACAGGUGCUCUGGGAACGCCUUCAACAGAGGAUUGAGCAUCA
B2: chr6:71460543:71460544:+_ENSMUSG00000052656_ENSMUST00000064637|mus_hu|FALSE|FALSE (ssRNA)
RNA: GGGAGUUCUACAGUCCGACGAUCCAACCAAAUAAAUUCUGUCAUCAACAUUAGCAUAAUGUGUAUUUCCCGUCACUGCACUAACAUUAAACUAAACUUCAAACCACAAAAACAUUGUGACUAACAUUAAAAAGGCAAGCUGUACAACAGAGGAUUGAGCAUCA
B3: chr8:95500983:95500984:-_ENSG00000164944_ENST00000437199|hu_hu|hu_hu_hu_mus_True|8_28 (ssRNA)
RNA: GGGAGUUCUACAGUCCGACGAUCAGAACACAUCUAUCGAGUAAAGGACCGUACAUGACGGCCUCUACCACUGCCUCCACUAACAAACUUUCCUCUCGAGCCUCCACCUGCCGCUAUUGUACUAGCCCCAGGAAGGUCCAGGCCCAACAGAGGAUUGAGCAUCA
B4: chr17:65346418:65346419:-_ENSG00000197170_ENST00000584008|hu_mus|FALSE|FALSE (ssRNA)
RNA: GGGAGUUCUACAGUCCGACGAUCCCGCAGAGUAUCAAUCAAUCGCAGCUUGACUGGCAGGUCUGUGAUCUCCUCCACGUAAGUACAGCACUGCUGAACCAUUUUUGCAACUGCUUGUUUUAACUGACUCCGUCGUUUUGACAGCAACAGAGGAUUGAGCAUCA
B5: 55646247_55646367_442_5pUTR_ENSG00000115355_ENST00000336838|human|control|control (ssRNA)
RNA: GGGAGUUCUACAGUCCGACGAUCCCACAAAAAUACGCCUAGGGAAUUGGUCACUAAACGUGGAAGUAAGUAGAAAUCAAUGAAAGUCCAUUUCGGCAAGGGAGAAAAAUCCCAUCGUGGAGGAGGGGGGCACUCUCCCUCCUCCAACAGAGGAUUGAGCAUCA
B6: chr10:120825051:120825052:-_ENSG00000107581_ENST00000369144|hu_hu|FALSE|FALSE (ssRNA)
RNA: GGGAGUUCUACAGUCCGACGAUCAUCCAGAAGUCGAGCAAUAUCCGUACGCUCAGGAGUAAUAGGGAUGGAAAGAGUGGCUAAAAGGACUCUAGUAGACAUUCUUUGCAUCUCAUCUUGUGUGAGAUUCUUUCUCAUUUCUCUCAACAGAGGAUUGAGCAUCA
B7: chr1:156945260:156945261:-_ENSMUSG00000056708_ENSMUST00000055322|mus_mus|FALSE|FALSE (ssRNA)
RNA: GGGAGUUCUACAGUCCGACGAUCCCCCCAAGAUCGAACGGGGAACUCCCCUUCCUCGAGCCUUUCUGCAGCUUCCUUUUCUGUGCUGCUGGCAGAGGAAAGUCCCUGUCUGCACCCCCAAAGUCUCAAGCCCCGGGGAAGGGGCAACAGAGGAUUGAGCAUCA
B8: chr1:111660612:111660613:-_ENSG00000156171_ENST00000539140|hu_hu|motif|central (ssRNA)
RNA: GGGAGUUCUACAGUCCGACGAUCAAAGUAUAGGCAUAGGUGUUUUUAAUAGUCUUCUUGAUGAUAUCCUUUAGAAUAAUCGGUCAAAUGGCUUCUUUCAUGUUUCCUGAUUAUCAGCAUUCAUCAGUGUUACUGUCAGCCUUGCAACAGAGGAUUGAGCAUCA
B9: chr1:245006428:245006429:+_ENSG00000203667_ENST00000366528|hu_mus|FALSE|FALSE (ssRNA)
RNA: GGGAGUUCUACAGUCCGACGAUCAGUUGCUUAGCUGCUGUUGUUGGUCUUCAUUUUUCUUUCAGGAUCAAGGUGGGUGCUUUCAUAUAAAAUCUUAUUUUUUAUUCCUUCUCUGGCAAUUCUUUCCUGGAUCCUCUGCUUAGCCAACAGAGGAUUGAGCAUCA
B10: chr19:8913615:8913616:-_ENSMUSG00000071658_ENSMUST00000096259|mus_hu|mus_mus_mus_hu_False|68_68 (ssRNA)
RNA: GGGAGUUCUACAGUCCGACGAUCAGGGUACCAAAACCUUCUGCCUGAAAUGGGUGCCCCACCCAGUCAGGACUUGGAGCUGAAAGUAUCUGAUGCAGAAGCAGUGACUAUACGAAAGGAGGCCCCUGGGGAGGGCCAGGCCAGCAACAGAGGAUUGAGCAUCA
B11: chr3:108163977:108163978:+_ENSMUSG00000068747_ENSMUST00000102632|mus_hu|FALSE|FALSE (ssRNA)
RNA: GGGAGUUCUACAGUCCGACGAUCAUUUCUGUGCACGAGGAUAAGGAGAGUAUGACCAAAACCCUCCUCCCUAGAGGUCCAAACACAGGAGGUGGGCCAAAUCAUCAGGGAACAGUCAGUCACCCGCUUGUGGCUGAGGGCAUGCAACAGAGGAUUGAGCAUCA
B12: chr11:47650564:47650565:-_ENSG00000109919_ENST00000530428|hu_mus|motif|central (ssRNA)
RNA: GGGAGUUCUACAGUCCGACGAUCAUAGGUAUUGAUGAGAUAGGCCAGUGAGUUACACAGCCACAAAGAAAUGAUGUCACCGGGGAGGCGAGGAAUGAGACCCGCAAAAAAUCCUACGAUGCCUUCUUCCCGGUAGAUGGUUACCAACAGAGGAUUGAGCAUCA
B13: chr2:48026839:48026840:+_ENSG00000116062_ENST00000540021|hu_hu|hu_hu_hu_mus_False|48_98 (ssRNA)
RNA: GGGAGUUCUACAGUCCGACGAUCAUAGUGAGCCACUAGAGUCCUAAAUCUGGAACAGUGGCGGUCAUCCGAAAACUGGCCGAUGAAAAACUUUCCCAGUGAAGUGUCCACAAAGCAAACACCAUACACACGAGUGUGACCAGACAACAGAGGAUUGAGCAUCA
B14: chr7:141441981:141441982:+_ENSG00000106028_ENST00000265304|hu_mus|hu_hu_hu_mus_False|38_48 (ssRNA)
RNA: GGGAGUUCUACAGUCCGACGAUCCUCAUGUCUUACAAACUGACGAAAUACCUGUAACACAGGUCUUCGAAACAUGGCUUCUGUUUUCUUUUCUUACAGUCUAAUCUGCUUUUCCUAAAGGAAAGAAAGAAAAGAGAAAAAUGACAACAGAGGAUUGAGCAUCA

molecular target: T1, UNK ZnF1-3; assay: nsRBNS (natural sequence RNA bind-n-seq); RBNS binding buffer (assumed for nsRBNS): 25 mM Tris pH 7.5, 150 mM KCl, 3 mM MgCl2, 0.01% Triton X-100, 500 ug/ml BSA, 20 U/ml SUPERase-In, 4 C; UNK is unkempt and MSI1 is Musashi-1; names of the RNAs are library labels; protein concentration not given here; high values mean tight binding

Row | Binder | binding signal [enrichment R]
1 | B1 | 0.821
2 | B2 | 1.37
3 | B3 | 1.04
4 | B4 | 0.575
5 | B5 | 1.1
6 | B6 | 0.418
7 | B7 | 0.533
8 | B8 | 0.809
9 | B9 | 0.679
10 | B10 | 1.39
11 | B11 | 1.18
12 | B12 | 1.26
13 | B13 | 1.06
14 | B14 | 0.657
